# Reference: the supplement of paper PMC11417369
# ± gives the standard deviation of the averaged measurements. The list shows a part of the results.
# System: PfAP2-EXP AP2 domain (GST-tagged)
# Test: gcPBM binding intensity (ln(normalized median fluorescence intensity)); higher = stronger DNA binding
# How it was run: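 GST-tagged P. falciparum DNA-binding domains, expressed in E. coli (about 25 μg on average), were applied for 1 h to an Agilent 4 × 180k array of primer-extended double-stranded 36-bp intergenic genomic probes plus negative controls. The binding buffer was 1× PBS with 1% milk, 0.2 mg/ml BSA, 0.5% salmon testes DNA and 0.03% Triton X-100. Bound protein was detected with Alexa488 anti-GST antibody and scanned at 488 nm. Binding intensity is the highest Masliner-normalised natural-log median intensity across replicate spots of either probe orientation.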
row,Sequence,gcPBM binding intensity (ln)
1,AGGATATATATATTCACACACACATGGAAATATATA [CACACA_site383],8.6 ± 0.42
2,TATGAATATCTATACACACACATATAAATACACGCT [CACACA_site6853],8.52 ± 0.36
3,TATCTTTTTTTTAATACACACAAATATATGAAAGTA [CACACA_site4161],8.35 ± 0.35
4,AATTCTGGCAAAATAACACACACATATATTTTATAT [CACACA_site9064],8.53 ± 0.59
5,GTTATAATTGAACTAGTGCATAAATATATTTTAATT [GTGCAC_site9851],8.71 ± 0.23
6,ATAAAGGAATTTTATACACACAACATATATATATAT [CACACA_site2861],10.1 ± 0.32
7,TTTTTTTTTACTAACTGTACTAAAGAAAAAAAAGGG [XGTACX_site3519],8.68 ± 0.37
8,GGGGGGGGAGGGTGAATACACACGTAATAATCATAA [CACACA_site1716],10.8 ± 0.15
9,ATATAAACACTGAATGCATGCACATATATATATATA [TGCATGCA_site940],10.45 ± 0.049
10,CGTATTATTATATAAACACACAAGGGGGCATGTATA [CACACA_site745],9.83 ± 0.042
11,ATGTGTATATGTGTGGGTACTTAATTTTTTTCTTTA [XGTACX_site5351],8.88 ± 0.48
12,ATTTGTATATACATATGTACACATGTAGGCTCATAA [XGTACX_site1709],8.72 ± 0.38
13,TTTCGTAAACTTTATGCACACACATATACATATTTC [CACACA_site8146],8.96 ± 0.13
14,TATATTAAAATAATCACACACATCAATTAATGGTAA [CACACA_site1234],8.41 ± 0.42
15,AGTATAACTTTTGCGCGTACACACATTTATCCTCTT [XGTACX_site429],9.7 ± 0.42
16,TTTGAATACTGAATGGTGCAAATTGTTCTCCCCATG,8.63 ± 0.16
17,TGTATATGGTTTGTGCAAAAATTTATTAATGTGTAA [TGCATGCA_negctrl_site374],8.64 ± 0.4
18,TACAAATGCGTATGTCAATATATGGAGAAATAAATA [TGCATGCA_negctrl_site290],8.62 ± 0.49
19,TATAATAATATTTACACACGCATATGTTATATATAT [CACACA_site1477],8.56 ± 0.4

row,Sequence,gcPBM binding intensity (ln)
1,AATTATGTGTGTCAATGTACACGATTTACATAATAT [XGTACX_site5150],8.52 ± 0.38
2,TGAAAAATATAAGGTTGTACTTACATCGGGAATAAT [XGTACX_site4701],8.72 ± 0.35
3,AATATATGGTTTCTTGATATTAAATTCAATTTAATG [CACACA_negctrl_site69],8.35 ± 0.5
4,ATAAATGAACAAGTGGCACACACACCGTATAACTAA [CACACA_site9047],8.76 ± 0.6
5,ATCCGTGGGTGAAATACACACATGATAATGTGAATG [CACACA_site4662],8.32 ± 0.52
6,AAAAAAAAAAAAAAAAGTACATATAATAAATAATGA [XGTACX_site7931],8.39 ± 0.42
7,TATATCTTAATATTTACACACATGCGCACCCATAAA [CACACA_site5349],9.12 ± 0.092
8,AATCTTTGTAATAAAAGTACATTAATTTTATTAATA [XGTACX_site8325],8.09 ± 0.16
9,ACACATACAACGTGGTGTACAAATAATTATAATCAA [XGTACX_site2287],8.61 ± 0.42
10,TTTTAAATACTTTATTGTACATTATATATATATATA [XGTACX_site7021],10 ± 0.2
11,TAAGTATATATATTTACACACATTTGTTTTTTTTTA [CACACA_site3784],8.43 ± 0.38
12,TAGTTTTTTATATATTGTACAAATGATATATTATAT [XGTACX_site1002],8.54 ± 0.28
13,TTTTGTTATTTTTGTATGCACTACATATTATTATAT,9.04 ± 0.17
14,TATTTTTAAACAAAACTGTATTTATTTTTTAAAATT [CACACA_negctrl_site1449],8.11 ± 0.35
15,AAACTTTTTTTAAAAACACACATATAGATTTATATA [CACACA_site7842],8.32 ± 0.42
16,ATATATATATATAATTGTACATTTTTATGTTTTATA [XGTACX_site4560],9.88 ± 0.39
17,GAAATTAAAAAATTTATGCACACTTTAAAAAAAAAA [CACACA_site3769],8.29 ± 0.32
18,TTCATTAAAATTATTACACACAGTTCTTCAACCAAA [CACACA_site3504],8.36 ± 0.41
19,ATATGTAGTTTTTATTGTACGTGTAGAAGAAATAAT [XGTACX_site6608],9.03 ± 0.41

row,Sequence,gcPBM binding intensity (ln)
1,TTTTAAACAGGACACACACACATATAGATTTATATA [CACACA_site6560],8.69 ± 0.4
2,AATGATTTTCAATCGAAATGAAACTTAGAAGATATA [CACACA_negctrl_site1475],8.48 ± 0.3
3,TATAACCATATATACACACACATATAAATATAAATA [CACACA_site7089],8.56 ± 0.48
4,TATATTTTAATTTGAAGTACTAATATTTATTTATAT [XGTACX_site7458],8.18 ± 0.28
5,ATATATATATATTTCGTGCACTGATAATATTATTTT,9.86 ± 0.085
6,AAGGTGGAAACAATTACACACACACTAAAAAAAAAA [CACACA_site7493],8.72 ± 0.5
7,ATGAAAAAAAATAAAAAATATATATATATATATATA [CACACA_negctrl_site236],10.1 ± 0.34
8,GAACGAAATAAGTGTGTGCACATGTAACCACAAATC [GTGCAC_site9829],9.23 ± 0.31
9,AATTAATATATAAATAATAAAAAAAAATATATAAAC [XGTACX_negctrl_site280],8.74 ± 0.4
10,CAATATTTTCATAGATGTACTTTGGACTTATTATAT [XGTACX_site4849],8.34 ± 0.38
11,TAAATAAAAGATACGAGTACGTATGATGTTAACCTC [XGTACX_site8840],8.53 ± 0.4
12,GTATATAGTATGTAGAGTACTAATTTCCATATGTTC [XGTACX_site7816],8.53 ± 0.31
13,ATTTATATATAGGTGTGTCCACAAATAGTATGTAAA [XGTACX_site2916],8.88 ± 0.35
14,TTTAAAATAACCAAAAACAAAAAGAAACACAAATGT [GTGCAC_negctrl_site705],8.77 ± 0.41
15,AAAAAAAAAATTTACTGTACACATTTGGGATACTCA [XGTACX_site5191],8.29 ± 0.25
16,TTTCAAATGGAATGTGTGCACATAAATGTAAATAAA,8.97 ± 0.31
17,GATCAAATAGAAAATACATGCAATGTGTGAAATAAC [TGCATGCA_site835],9.59 ± 0.18
18,TATAAGTTGATATATACACACATATATAAATATGTA [CACACA_site7526],8.24 ± 0.41
19,TATTTATAAAAATATACACACATACAAATATGCATA [CACACA_site4555],8.4 ± 0.27
